Here are results for 81 compounds from PubChem BioAssay (NCI).

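How tested: cells in 96-well plates exposed to compound for 48 hours at five concentrations. At the GI50, growth is halved. TGI: concentration producing complete growth inhibition.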 Where only a bound is given, the exact number is not on record here.

The test system of this assay is NCI-H322M lung. Kind of assay: NCI anticancer screen, dose series, 48 h.
Turning to `O=S1(=O)C[C@@H](O)[C@H](O)CS1`, the TGI was more than 100 µM. In the case of `CC(=O)O[C@H]1C(=O)[C@@]2(C)[C@H]([C@H](OC(=O)C3CCCCC3)[C@]3(O)C[C@H](OC(=O)[C@H](O)[C@@H](NC(=O)C4CCCCC4)C4CCCCC4)C(C)=C1C3(C)C)[C@]1(OC(C)=O)CO[C@@H]1C[C@@H]2O`, the TGI amounted to 0.74 µM. As to `C=C1C(=O)O[C@H]2[C@H]1CC/C(Cn1cc(-c3ccccc3)nn1)=C\CC[C@@]1(C)O[C@@H]21`, the GI50 was 7.79 µM and the TGI was 15.4 µM.

For `NC1CC(=O)c2cc(Br)sc21` (configuration not stated), the TGI is more than 100 µM. As for `CCN(CC)CCCCCCCNc1c2ccc(Cl)cc2nc2ccc(OC)cc12`, the GI50 is 0.4 µM and the TGI turned out to be 1.54 µM. `S=C(Nc1ccc(Cl)cc1)Nc1ccc(Cl)cc1` (tested in a mixture with another compound): the GI50 was 3.17 µM and the TGI was more than 100 µM. In the case of `O=C(/C=C/c1ccc(O)cc1)NCCc1ccc(O)cc1`, the TGI is more than 12.5 µM. Turning to `CCOC(=O)CCC(NC(=O)c1ccc(Nc2nc3cc(C(F)(F)F)ccc3nc2-c2ccccc2)cc1)C(=O)OCC` (configuration not stated), the TGI is more than 100 µM. Compound `Nc1c(-c2nc3ccccc3[nH]2)sc(=S)n1-c1ccccc1` registered a TGI of more than 100 µM. On the same count and under the same terms, the figure for `C=C(C)[C@@H]1CC[C@]2(C(=O)O)CC[C@]3(C)[C@H](CC[C@@H]4[C@@]5(C)CC[C@H](C(=O)/C=C/c6ccc(O)cc6)C(C)(C)[C@@H]5CC[C@]43C)[C@@H]12` is 23.5 µM. On the same count and under the same terms, the figure for `COC(=O)C1(O)c2ccccc2N=C2C(=O)c3ccccc3N21` (configuration not stated) is more than 100 µM. As to `COc1nc(C)cc2c(=O)n(-c3ccccc3)n(CCCN3CCN(c4ccc(Cl)cc4)CC3)c(=O)c12`, the GI50 was more than 50 µM and the TGI was more than 50 µM. As for `CCOC(=O)c1ccc(C(=O)/C(C#N)=C2\CCCN2)[nH]1`, the TGI was more than 100 µM. Same read-out and setting: the figure for `CC(=O)OC1COC(n2c(N)c(C#N)c(C)c(C#N)c2=S)C(OC(C)=O)C1OC(C)=O` (configuration not stated) is more than 100 µM. On to `CC1(C)N=C(N)N=C(N)N1c1cc(Cl)ccc1Cl`, for which the GI50 was more than 100 µM and the TGI is more than 100 µM. `C[C@H]1CCC/C=C/[C@@H]2C[C@H](O)C[C@H]2[C@H](O)[C@@H](S(=O)CCN(C)C)CC(=O)O1` (some centres not stated): the GI50 is 0.237 µM. Take `O=C1OC(=O)C2C1C1(c3ccccc3)C(c3ccccc3)=C(c3ccccc3)C2(c2ccccc2)S1=O` (configuration not stated): the GI50 was more than 100 µM and the TGI is more than 100 µM. For `COC(=O)Nc1nc2ccccc2c(=O)[nH]1`, the TGI is more than 100 µM. For `O=C1N=C(c2ccccc2)O/C1=C\c1ccccc1`, the TGI is more than 100 µM. For the compound `COc1cc(/C=C/C(=O)c2ccc(Cl)cc2)ccc1OS(=O)(=O)c1ccc(C)cc1`, the GI50 is 90.5 µM and the TGI is more than 100 µM. Compound `Cn1c(=O)c2[nH]c(CS(=O)(=O)Cc3nc4c([nH]3)c(=O)n(C)c(=O)n4C)nc2n(C)c1=O` returned a TGI of more than 100 µM. Same read-out and setting: the figure for `CC(C)CC1c2[nH]c3ccccc3c2C[C@H]2C(=O)NC(CCC(=O)OC(C)(C)C)C(=O)N12` (some centres not stated) is more than 100 µM. As to `N.N.NC(CS)C(=O)[O-].NC(CS)C(=O)[O-].[Pt+4]` (configuration not stated), the GI50 was more than 50 µM and the TGI is more than 50 µM. In turn, `C=C[C@@]1(C)CC(=O)[C@]2(O)[C@@]3(C)[C@@H](OC(C)=O)CCC(C)(C)[C@@H]3[C@H](OC(C)=O)[C@H](OC(C)=O)[C@@]2(C)O1` had a TGI of more than 100 µM.

On to `C=C(CN1CCc2ccccc2C1)c1ccc(C(=O)Nc2ccc(N)cc2)cc1`, for which the GI50 was 18.7 µM and the TGI stood at 77.7 µM. The compound `CN(C)c1ccc2c3c(c(=O)oc2c1)CCC3` came in with a TGI of more than 100 µM. The same measure, in the same setting: the figure for `COC(=O)CC1C(=O)OCc2c1cc1n(c2=O)Cc2c-1nc1ccccc1c2OC` (configuration not stated) is more than 100 µM; for `COC(=O)c1c(C(=O)OC)c2cc(C(=O)c3ccccc3)ccn2c1Cl` it is more than 100 µM. In turn, `CC(=O)OCC1OC(n2c(=O)n(-c3ccccc3)c(=O)c3ccccc32)C(OC(C)=O)C(OC(C)=O)C1OC(C)=O` (configuration not stated) showed a TGI of more than 100 µM.

`CC1(C)OCC(CO)(Nc2nc(N3CC3)nc(N3CC3)n2)CO1` registered a TGI of 76.5 µM. On to `CC1(O)/C(=N/O)CC2CC1C2(C)C` (configuration not stated), for which the TGI is more than 100 µM. For `O=C(Nc1ccc(Cl)cc1)c1cc2ccccc2cc1O`, the GI50 is 2.99 µM and the TGI is more than 100 µM. As for `CC(C)CCC[C@@H](C)C1CCC2[C@@H]3CCC4CC(CCC=C(c5cc(Cl)c(OC(=O)c6ccccc6)c(C(=O)O)c5)c5cc(Cl)c(OC(=O)c6ccccc6)c(C(=O)O)c5)CC[C@]4(C)C3CC[C@@]21C` (some centres not stated), the TGI is more than 100 µM. Still for that read-out and setting: the figure for `O=C(Cc1ccccc1)c1ccc2[nH]c(=O)oc2c1` is more than 100 µM; for `O=C(Nc1nc(C23CC4CC(CC(C4)C2)C3)cs1)c1cc2cc(Br)cc(Br)c2oc1=O` it is more than 100 µM; for `O=C1CCCC2=C1CC1=C(CCCC1=O)N2c1cccc2ccccc12` it is more than 100 µM.

Consider `O=C1c2ccccc2-c2c1c1ccccc1c(=O)n2CCNCCNCCn1c2c(c3ccccc3c1=O)C(=O)c1ccccc1-2`, for which the GI50 is 1.13 µM and the TGI is 17.7 µM.

The compound `CCOC(=O)C1C(=O)c2ccccc2CN1Cc1ccccc1` (configuration not stated) showed a TGI of more than 100 µM. In the case of `O=C1c2ccccc2-c2c1c1ccccc1c(=O)n2CCCN1CCOCC1`, the GI50 was more than 100 µM and the TGI is more than 100 µM. Regarding `CC1NC(/C(=C/c2ccccc2O)NC(=O)c2ccccc2)OC1=O` (configuration not stated), the TGI is more than 50 µM.

Regarding `O=C(O)CN1CCN(CC(=O)O)CCN(CC(=O)O)CCN(CC(=O)O)CC1`, the TGI is more than 100 µM. The same measure, in the same setting: the figure for `O=C1/C(=C\c2cccc(Oc3ccccc3)c2)SC(c2ccccc2)N1c1ccc(Cl)cc1` (configuration not stated) is more than 100 µM. On to `O=C(C(Br)Br)C(Br)C(Br)c1ccccc1` (configuration not stated), for which the GI50 is 21.1 µM and the TGI was 38.3 µM. In the case of `O=C1C(=O)N(c2ccc(Cl)c(Cl)c2)C(=O)C(=O)C1c1nc2ccccc2o1`, the TGI was more than 100 µM. Still for that read-out and setting: the figure for `O=c1c2cccnc2nc2ccc3c[nH][nH]c3c12` is more than 10 µM; for `N#C/C=C1\C=CC(O)C(O)C1OC1OC(CO)C(O)C(O)C1O` (configuration not stated) it is more than 100 µM; for `CC[N+](CC)(CC)CCCn1c2c(c3ccccc3c1=O)C(=O)c1ccccc1-2` it is 1.12 µM. Consider `Cc1ccc(S(=O)(=O)N2CCCCN(S(=O)(=O)c3ccc(C)cc3)Cc3ccccc3OCCOCCOc3c4cccc3Cc3cccc5c3OCCOCCOc3ccccc3CN(S(=O)(=O)c3ccc(C)cc3)CCCN(S(=O)(=O)c3ccc(C)cc3)Cc3ccccc3OCCOCCOc3c(cccc3C4)Cc3cccc(c3OCCOCCOc3ccccc3C2)C5)cc1`, for which the TGI was more than 100 µM. For the compound `CC(NNC(=S)N1CCCCCC1)c1ccc2ccccc2n1` (configuration not stated), the GI50 was 1.46 µM and the TGI is more than 54.1 µM. `COC(=O)c1c(CC#N)cccc1CC#N` yielded a TGI of more than 100 µM. For `C/C=C(\C)C(=O)O[C@H]1C=CC(=O)O[C@H]1CNC(=O)[C@H](C)O`, the GI50 is 21.4 µM and the TGI amounted to 54 µM. `C[Si](C)(C)OC1c2[nH]c3ccccc3c2CN2C(=O)CCC12` (configuration not stated) returned a TGI of more than 100 µM. Take `CN(C)CCCNC(=O)c1cc(NC(=O)c2cc(NC(=O)c3cc(NC(=O)CCc4c[nH]c5ccccc45)cn3C)cn2C)cn1C`: the GI50 was 31.1 µM and the TGI is more than 100 µM. As for `O=[N+]([O-])/C=C/c1c[nH]c2ccccc12`, the GI50 is 16.3 µM and the TGI turned out to be 30.2 µM.

In turn, `O=[N+]([O-])c1cccc2nccc(NCC(O)CO)c12` (configuration not stated) yielded a TGI of 40.8 µM.

For the compound `C=C[C@H]1CN2CCc3c([nH]c4c([C@H]5CCCN5C)c(O)ccc34)[C@@H]2C[C@@H]1C[C@H]1c2[nH]c3ccccc3c2CCN1C`, the TGI turned out to be 3.02 µM. On to `O=C(Nc1ncc(Cc2ccccc2Cl)s1)c1ccc2c(c1)OCCO2`, for which the GI50 is 0.75 µM and the TGI is more than 100 µM. For `Cc1ccccc1N(C)S(=O)(=O)c1ccccc1[N+](=O)[O-]`, the TGI is more than 100 µM. `Cc1c2cc[nH]c(=O)c2cc2c(=O)c3cnccc3[nH]c12` yielded a TGI of more than 100 µM. `O=C1C=Cc2ccccc2/C1=C/c1[nH]c(=O)[nH]c1O`: the GI50 is 11.1 µM and the TGI was 44.2 µM. `N#CC12C3C4CC5C6C4C1C6C(O)(C53)N2Cc1ccccc1` (configuration not stated): the TGI was more than 100 µM. The compound `CCOC(=O)C(C)c1cc(C2(C)OCCO2)c(C)o1` (configuration not stated) showed a TGI of more than 100 µM.

With `C[N+](C)(CCCCCC[N+](C)(C)CCCN1C(=O)c2cc3ccccc3cc2C1=O)CCCN1C(=O)c2ccccc2C1=O`, the GI50 is more than 37.5 µM and the TGI was more than 37.5 µM. Take `O=C(Oc1ccc(CCl)cc1)c1ccccc1`: the GI50 is 0.392 µM and the TGI was found to be 1.42 µM.

The compound `CCOC(=O)CC1=CSC2=NCCN12` showed a TGI of more than 100 µM. The same measure, in the same setting: to `OC1CC(O)c2c(Cl)sc(Cl)c21` (configuration not stated) belongs more than 100 µM; to `COc1ccc(C2C(Cl)C(=O)N2NC(=O)Cc2ccccc2)cc1` (configuration not stated), more than 100 µM; to `CC1=NN(C(=O)Cc2ccccc2)C(=O)/C1=C\C=C\c1ccccc1`, more than 100 µM. The compound `CC(=O)Nc1ccc(C2[C@H]3C(=O)N(c4ccc(Cc5ccc(N6C(=O)[C@@H]7ON(c8ccccc8)C(c8ccc(NC(C)=O)cc8)[C@@H]7C6=O)cc5)cc4)C(=O)[C@H]3ON2c2ccccc2)cc1` (some centres not stated) gave a TGI of more than 100 µM.

In turn, `CCCNC(=S)/N=C\c1c(O)c2ccccc2oc1=O` showed a TGI of more than 100 µM. As to `O=C1CCCc2cc3c(cc21)CCC3C(=O)O` (configuration not stated), the TGI is more than 100 µM. `COC(=O)C1=CC[C@@H]2C(C(=O)O)=CO[C@@H](OC3OC(CO)C(O)C(O)C3O)[C@H]12` (some centres not stated) came in with a TGI of more than 171 µM. The same measure, in the same setting: to `CC(c1cccc2ccccc12)/[N+]([O-])=C/c1ccccc1` (configuration not stated) belongs more than 100 µM. The same measure, in the same setting: the figure for `CC(C)(C)[C@H]1CO[C@]2(C)[C@@H]3C[C@@H]3C(=O)N12` is more than 100 µM. The same measure, in the same setting: the figure for `CN(C)CCNc1ccc2c(=O)n(CCN(C)C)c(=O)n3c4ccc(N)cc4c(=O)c1c23` is 0.295 µM. `CN(c1ccccc1)C(c1ccccc1)C(O)c1ccccc1` (configuration not stated) returned a TGI of 35.7 µM. Compound `Cc1cc(C)nc(Nc2nc3ccc([N+](=O)[O-])cc3[nH]2)n1` yielded a TGI of more than 100 µM. Still for that read-out and setting: to `CNC(=O)c1n[nH][nH]c1=O` belongs more than 100 µM; to `COC12C=CC(CC1)C1C(=O)c3c(C)c(C)n(C)c3C(=O)C12` (configuration not stated), more than 100 µM. Compound `O=C1C(=O)c2ccccc2C(O)=C1C(CCc1ccccc1)C1=C(O)c2ccccc2C(=O)C1=O` had a TGI of more than 100 µM. On the same count and under the same terms, to `CCC1(N=[N+]=[N-])C(=O)Nc2cc(C)ccc2C1=O` (configuration not stated) belongs more than 100 µM.
